Measured values published in publication PMC4336329 (PLoS ONE, 2015).
Out of some 310,000 compounds screened, about 2,200 (0.71%) showed an effect of 50% or more. The effect is printed as a negative number. The list shows a part of the results.

Target: human ether-à-go-go-related gene (hERG) potassium channel (human, UniProt Q12809)
Assay: primary screen, population patch clamp on CHO cells stably expressing hERG

Sequence of human ether-à-go-go-related gene (hERG) potassium channel (Q12809 whole entry, looked up): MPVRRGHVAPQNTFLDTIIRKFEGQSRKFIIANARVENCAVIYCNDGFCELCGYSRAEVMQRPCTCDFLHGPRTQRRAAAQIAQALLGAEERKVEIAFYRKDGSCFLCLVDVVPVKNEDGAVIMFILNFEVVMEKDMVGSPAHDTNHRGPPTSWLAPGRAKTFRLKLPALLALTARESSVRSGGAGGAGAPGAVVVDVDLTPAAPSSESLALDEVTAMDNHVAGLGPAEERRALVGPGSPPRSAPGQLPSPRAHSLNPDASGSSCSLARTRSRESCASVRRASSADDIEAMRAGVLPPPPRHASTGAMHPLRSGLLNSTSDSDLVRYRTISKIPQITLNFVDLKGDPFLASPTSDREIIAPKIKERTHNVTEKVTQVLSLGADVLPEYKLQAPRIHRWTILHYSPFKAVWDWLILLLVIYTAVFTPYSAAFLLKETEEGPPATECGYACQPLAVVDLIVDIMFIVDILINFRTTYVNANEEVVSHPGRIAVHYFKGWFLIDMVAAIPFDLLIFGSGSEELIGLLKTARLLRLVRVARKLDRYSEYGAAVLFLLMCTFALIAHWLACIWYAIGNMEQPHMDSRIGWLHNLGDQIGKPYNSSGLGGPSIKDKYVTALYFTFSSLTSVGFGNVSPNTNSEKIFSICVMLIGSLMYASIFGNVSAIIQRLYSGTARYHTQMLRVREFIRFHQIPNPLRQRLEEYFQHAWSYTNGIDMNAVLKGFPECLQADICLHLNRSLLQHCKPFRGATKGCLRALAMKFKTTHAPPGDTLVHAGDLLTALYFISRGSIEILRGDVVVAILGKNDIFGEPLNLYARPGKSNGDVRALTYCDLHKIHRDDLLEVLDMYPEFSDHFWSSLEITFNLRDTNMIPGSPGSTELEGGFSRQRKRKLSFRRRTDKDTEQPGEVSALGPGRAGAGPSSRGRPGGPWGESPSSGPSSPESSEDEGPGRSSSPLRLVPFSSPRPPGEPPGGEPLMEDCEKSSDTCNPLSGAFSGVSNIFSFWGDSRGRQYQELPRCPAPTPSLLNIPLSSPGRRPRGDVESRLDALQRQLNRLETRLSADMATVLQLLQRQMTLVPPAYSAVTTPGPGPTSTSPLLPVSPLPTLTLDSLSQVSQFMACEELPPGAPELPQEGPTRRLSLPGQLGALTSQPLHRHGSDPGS

Compound	hERG current change (%, negative = inhibition) at 1uM [%]
CCOc1ccc(N(C(C)C(=O)NCc2ccco2)S(C)(=O)=O)cc1 (centres unmarked)	7.69
COc1ccc(S(=O)(=O)N2CCC(C(=O)Oc3c(OC)cccc3OC)CC2)cc1OC	-2.36
COc1cccc(C(=O)Nc2c3c(nn2-c2cccc(C)c2C)CS(=O)(=O)C3)c1OC	-3.59
Cc1cc(C)cc(NC(=S)Nc2ccccn2)c1	-1.9
COc1ccccc1NC(=O)C12CCC(C)(C(=O)C1)C2(C)C (centres unmarked)	11.2
CN(C(=O)COC(=O)c1cccs1)c1c(N)n(Cc2ccccc2)c(=O)[nH]c1=O	-2.84
CCc1cccc(NC(=O)CCc2nc(-c3cccs3)no2)c1	8.64
CN1c2ccccc2Oc2c(c(=O)n(C)c(=O)n2C)C1c1cccc([N+](=O)[O-])c1 (centres unmarked)	-0.702
O=C(COC(=O)C1CCN(S(=O)(=O)c2cccs2)CC1)Nc1ccc(F)cc1F	5.54
CS(=O)(=O)N(CC(=O)NCCSCc1ccccc1Cl)c1ccccc1F	5.3
Cc1nnc(SC(C)C#N)n1-c1ccccc1 (centres unmarked)	16
CCCn1c(-c2cc(OC)c(OC)c(OC)c2)nc2c1c(=O)[nH]c(=O)n2Cc1ccccc1	5.36
O=C(NCC(F)(F)F)Nc1nnc(C(F)(F)F)s1	-4.14
CC(C)CCN1CC(O)=C(c2nc(-c3ccc(Cl)cc3)cs2)C1=N	17.2
Cc1sc(NC(=O)c2ccco2)c(CN2CCN(c3ccccc3)CC2)c1C	13
COc1ccc(/C=N/NC(=O)C2c3ccccc3-c3ccccc32)cc1	6.1
Clc1nc(-c2ccccc2)ncc1Oc1ccccc1	12.4
O=C(COC(=O)c1ccc[n+]([O-])c1)Nc1ccc(Cl)cc1[N+](=O)[O-]	6.55
CCCCNC(=O)CCn1c(=O)c2ccccc2n(Cc2cc(C)ccc2C)c1=O	4.35
CCN1CCN(CC(O)COC(C)C)CC1.Cl (centres unmarked)	7.28
CCCCC1=CC2=C(c3ccco3)C(=O)C(C)(OC(=O)c3ccc(OC)cc3)C(=O)C2=CN1CCN1CCOCC1 (centres unmarked)	7.1
O=C(NCc1ccco1)c1c(F)c(F)c(F)c(C(=O)NCc2ccco2)c1F	15.3
Cn1nnnc1SCC(=O)NCC(=O)c1ccccc1	0.362

Compound	hERG current change (%, negative = inhibition) at 1uM [%]
Cc1ccccc1C(=O)N1CCN(c2ccc(N3CCOCC3)nn2)CC1	4.58
O=C(O)COc1ccccc1/C=N/NC(=O)CSc1nnc(SCc2cccc3ccccc23)s1	13.6
Cc1cccc(Nc2nc3c(S(=O)(=O)c4ccccc4)nnn3c3ccccc23)c1	3.41
Cc1ccc(Nc2ncnc3ccccc23)cc1.Cl	4.29
COC(=O)[C@@H](NC(=O)NC(C)CCc1ccccc1)C(C)C (some centres unmarked)	10.6
O=C(Cn1cnc2ccccc2c1=O)N(Cc1ccco1)c1ccc(O)cc1	5.6
COc1ccc(C(=O)Nc2ccncc2)cc1[N+](=O)[O-]	18.2
CC(C)[C@H](NC(=O)c1ccccc1)C(=O)OCC(=O)N1CCCc2ccccc21	5.03
O=C(c1cccc(C(F)(F)F)c1)C1CCCN(C(=O)/C=C/c2cnc[nH]2)C1 (centres unmarked)	1.75
CCOc1cc(N2CCOCC2)c(OCC)cc1NC(=O)c1ccco1	-9.54
Cc1cccc(C(=O)NCC(=O)NC2CCC(C)CC2)c1 (centres unmarked)	1.64
CC1(C)Cc2nc3oc4c(NCCCN5CCOCC5)ncnc4c3cc2CO1	-2.97
CC1CCN(S(=O)(=O)c2ccc3c(c2)N(C)C(=O)CC(=O)N3C)CC1	6.62
Brc1cccc(-c2nnc3n2CCCCC3)c1	16
Cc1ccc(C)c(OCC(=O)N(Cc2nnc(-c3ccccc3Cl)o2)C2CC2)c1	-1.88
COc1ccc(CCN2CC(O)=C(c3nc(C)cs3)C2=N)cc1OC	9.2
O=C(O)C1CCN(C(=O)NC2CCCCC2)CC1	6.94
CSc1nnc(N2C(=O)C(O)=C(C(=O)c3ccco3)C2c2cccc(Cl)c2)s1 (centres unmarked)	6.28
CCC(=O)Nc1ccc(S(=O)(=O)Nc2cc(C)on2)cc1	12.1
CCOC(=O)C(C)C(C)=O (centres unmarked)	12.1
COCCCC1CCN(C(=O)C2CCC(=O)N(C3CCCC3)C2)CC1 (centres unmarked)	14
O=C1C2CCCN2C(c2ccc(F)cc2)N1c1ccc(Cl)cc1 (centres unmarked)	1.15
NS(=O)(=O)c1ccc(N2CCNCC2)cc1	13

Compound	hERG current change (%, negative = inhibition) at 1uM [%]
CC1CCCCN1Cc1nc2c(c(=O)n(C)c(=O)n2C)n1CCc1ccccc1 (centres unmarked)	7.8
CC(C)C[C@H](NC(=O)c1nc[nH]c1C(=O)N1CCc2ccccc2C1)C(=O)OC(C)(C)C	10.6
NC(=O)Cc1ccc(Nc2nnc(-c3ccc(O)cc3)c3ccccc23)cc1	11.1
Cc1ccc(C)c(N2CCN(C(=O)c3cn(C)c4ccc(S(=O)(=O)N(C)C)cc4c3=O)CC2)c1	4.91
N#CC1=C2SCN(Cc3ccco3)CN2C(=O)CC1c1c(F)cccc1Cl (centres unmarked)	12.6
CCOc1ccccc1C(=O)Nc1cc(Cl)ccc1O	-3.48
CCSc1c(-c2ccccc2)nc2c(C)cccc2c1C(=O)O	11.6
CSc1ccccc1NC(=O)CN(c1cc(C)cc(C)c1)S(C)(=O)=O	3.07
CC1CCCN(c2nc3c(c(=O)[nH]c(=O)n3C)n2Cc2ccccc2Cl)C1 (centres unmarked)	7.46
Cc1ccc(-c2noc(CN(C(=O)Cc3ccccc3)C(C)C)n2)cc1	1.11
O=C(COc1ccc(C(=O)Nc2ccc(Cl)cc2)cc1)NCc1ccccc1	9.6
O=c1c2sccc2n(Cc2cc(=O)n3ccccc3n2)c(=O)n1-c1ccccc1	11.6
CNc1nc(Sc2cccc(C(F)(F)F)c2)cc(C(F)(F)F)n1	22.1
COc1ccc(CNC(=O)C2CCCN(C(=O)Nc3ccccc3OC)C2)cc1 (centres unmarked)	9.25
N#C/C(=C\c1cc(O)c(O)c(O)c1)C(N)=O	4.39
CC(=O)NC(CC(=O)Nc1ccc(S(=O)(=O)N2CCCC2)cc1)c1ccccc1 (centres unmarked)	11.8
COC(=O)c1cccc(-n2[nH]nnc2=S)c1	12.9
O=C(N/N=C\c1cccs1)c1ccccc1-n1cccc1	7.51
COC(=O)Cn1c(C)c(C#N)c2ccccc21	10.4
Nn1c(SCc2nc3ccccn3c2Br)nnc1-c1cccnc1	8.47
CN(C)C(=O)c1cn(-c2ccccc2)nc1-c1cccc([N+](=O)[O-])c1	2.16
CCOC(=O)C1=C(C)NC(C)=C(C(=O)OCC)C1C(=O)OCC(=O)N1c2ccccc2CC1C (centres unmarked)	0.873
O=c1c(O)cccc2cc(O)c(O)c(O)c12	15.8

Compound	hERG current change (%, negative = inhibition) at 1uM [%]
CC(=O)N1CCN(C(=S)Nc2cc(S(=O)(=O)N3CCOCC3)ccc2Cl)CC1	12.4
CN1CCN(C(=O)c2ccccc2NC(=O)COc2ccccc2Cl)CC1	4.18
CC(C)(C)NC1=CC(=O)OC12CCCCC2	6.58
CN1C(=O)c2ccccc2N(C)C1c1ccc2c(c1)OCO2 (centres unmarked)	8.33
Cc1ccc(C(=O)NNC(=O)Cc2csc(-c3csc(C)n3)n2)cc1	15.8
Cc1cccc2c(CCNC(=O)c3ccc([N+](=O)[O-])cc3)c[nH]c12	14.7
Br.C=CCn1c(=N)n(CC(=O)c2ccccc2)c2ccccc21	-0.707
Cc1ccccc1Nc1nc(N)nc(COC(=O)c2cccc(S(=O)(=O)NCc3ccccc3)c2)n1	9.64
CCCN1C(=O)SC(CC(=O)Nc2ccccc2)C1=O (centres unmarked)	8.6
Cc1cc(=O)oc2cc(OCCCC[n+]3ccccc3)ccc12.[Br-]	7.97
CS(=O)(=O)c1ccc2nc(NC(=O)c3ccc(N4C(=O)CCC4=O)cc3)sc2c1	11.8
COc1ccc2nc(NC(=O)CSc3nnnn3C)sc2c1	12.5
COc1ccc(NC2CCCN(C(=O)c3csc(C(C)C)n3)C2)cc1OC (centres unmarked)	9.41
O=C(NCCNC(=O)c1ccccc1F)c1ccccn1	11.9
Cc1ccc(S(=O)(=O)CCC(=O)NC2CCCC2)cc1	12.1
Cc1ccc(NC(=O)CN(C)S(=O)(=O)c2cccc3cccnc23)cc1	-0.451
CCCCCCCCN1[C@@H](CC(=O)OCC)c2cc(C(F)(F)F)ccc2S1(=O)=O	-10.6
CCN(CC(=O)Nc1ccccc1C(F)(F)F)C(=O)c1ccccc1SCC(=O)N1CCCC1	4.48
CN(C)S(=O)(=O)c1ccc2nnn(O)c2c1	7.89
CC1Cc2ccccc2N1S(=O)(=O)c1ccc(Cl)nc1 (centres unmarked)	9.77
